{"source": "PubChem BioAssay AID504832", "about": "(National Center for Advancing Translational Sciences (NCATS), 2011)", "note": "About 18,000 (5.8%) of roughly 310,000 compounds were called active. Inconclusive means that the source gave no clear call. Such entries were picked first, then a sample of the others. The call rests on the fitted dose curve; in most records, active means well fitted inhibition curve with a large enough effect; inconclusive means small, poorly fitted or top-dose-only effect, or another doubt; inactive means no such curve, though single readings can be large or run the other way. Potencies of inconclusive entries are left out as doubtful fits. On the % scale 0 is the no-effect control and ±100 the full control effect; potency means the concentration at half of the fitted maximal effect; tags describe the fitted curve by direction and shape."}
{"assay": "Primary qHTS for delayed death inhibitors of the malarial parasite plastid, 48 hour incubation", "conditions": "P. falciparum luciferase growth in erythrocytes; series mostly up to 28.7 µM; activity change, negative = inhibition: at the top concentration", "outline": "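In quantitative HTS format, infected erythrocytes bearing luciferase-reporter parasites were treated for a single generation at 37 C. Luminescence after adding detection reagent served as the growth measure.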"}
{"smiles": "COc1ccc(/C=N/N=C/c2ccc(OC)c(O)c2)cc1O", "Potency": "inconclusive [inhibitor, single point]"}
{"smiles": "CCOC(=O)C1CCCN(S(=O)(=O)CCNC(=O)c2ccc3c(c2)OCO3)C1", "note": "(centres undefined)", "Potency": "inconclusive [inhibitor, single point]"}
{"smiles": "OC(CN1CCN(Cc2ccccc2)CC1)c1ccc(F)cc1", "note": "(centres undefined)", "Potency": "inconclusive [inhibitor, partial curve, poor fit]"}
{"smiles": "Oc1ccccc1N1CCN(c2nnnn2-c2ccccc2)CC1", "Potency": "inconclusive [inhibitor, single point]"}
{"smiles": "CCOC(=O)CSc1nnc(CNc2nc(-c3ccccc3)cs2)n1C", "Potency": "inconclusive [inhibitor, partial curve]"}
{"smiles": "CN(Cc1ccccc1)CC(O)COc1ccc(CNCc2nccn2C)cc1", "note": "(centres undefined)", "Potency": "inconclusive [inhibitor, partial curve]"}
{"smiles": "N#CC12CCCCC1CC1CCCCC1(C#N)N2N", "note": "(centres undefined)", "Potency": "active: 13.1 µM"}
{"smiles": "C=CCOc1ccc(C2NC(=S)NC3=C2CCc2ccccc23)cc1", "note": "(centres undefined)", "Potency": "inconclusive [inhibitor, partial curve, poor fit]"}
{"smiles": "COc1cccc(N2CCN(C(=O)CN3C(=O)NC4(CCCC4)C3=O)CC2)c1", "Potency": "inconclusive [inhibitor, single point]"}
{"smiles": "COc1cccc(CN(C)C(=O)C(Cc2ccccc2)NC(=O)c2ccccc2)c1OC", "note": "(centres undefined)", "Potency": "inconclusive [inhibitor, full curve, poor fit]"}
{"smiles": "C=CCNC(=O)c1onc(CS(=O)(=O)c2cc(C)cc(C)c2)c1C(=O)NCC=C", "Potency": "inconclusive [inhibitor, single point]"}
{"smiles": "CCOc1ccccc1NC(=S)NCC1CCCO1", "note": "(centres undefined)", "activity change, negative = inhibition": "inactive: 6.98%"}
{"smiles": "Cc1[nH]n(-c2ccc(Br)cc2)c(=O)c1/C=N/NC(=O)c1ccccc1", "Potency": "inconclusive [inhibitor, partial curve, poor fit]"}
{"smiles": "COc1cc(/C=C(\\C#N)c2ccccn2)ccc1OCc1ccc(Cl)cc1", "Potency": "active: 6.57 µM"}
{"smiles": "CC(C)(C)N=C1NC(=NC(C)(C)C)c2ccccc21", "Potency": "inconclusive [inhibitor, single point]"}
{"smiles": "COc1ccc(OC)c2[nH]c(=O)c(CCNC(=O)c3cc4ccccc4o3)cc12", "Potency": "active: 8.28 µM"}
{"smiles": "O=C1/C(=C/c2ccncc2)SC(=S)N1C1CCS(=O)(=O)C1", "note": "(centres undefined)", "Potency": "inconclusive [inhibitor, partial curve, poor fit]"}
{"smiles": "CCCSc1nnc2nc3c(nn12)c1ccccc1n3C", "Potency": "inconclusive [inhibitor, partial curve]"}
{"smiles": "Cc1noc(C)c1C(=O)N1CCN(c2ccccc2O)CC1", "Potency": "inconclusive [inhibitor, single point]"}
{"smiles": "S=C(NC1CCCCC1)NC1CC2CCC(C1)N2Cc1ccccc1", "note": "(centres undefined)", "Potency": "inconclusive [inhibitor, partial curve]"}
{"smiles": "COc1ccc(Nc2ccc(S(=O)(=O)N3CCCCCC3)cc2[N+](=O)[O-])cc1", "activity change, negative = inhibition": "inactive: -17.5%"}
{"smiles": "COc1ccc2c(c1)Sc1ccccc1N2CCN(C)C", "Potency": "inconclusive [inhibitor, single point]"}
{"smiles": "CS(=O)(=O)N(C(=O)NC(=O)NC1CCS(=O)(=O)C1)C1CCCCC1", "note": "(centres undefined)", "Potency": "inconclusive [inhibitor, partial curve, poor fit]"}
{"smiles": "COc1ccc(OC)c(-c2csc(NC(=O)C3c4ccccc4Oc4ccccc43)n2)c1", "activity change, negative = inhibition": "inactive: -7.37%"}
{"smiles": "CC(C)(C)C1CCc2onc(C(=O)Nc3cccnc3)c2C1", "note": "(centres undefined)", "Potency": "inconclusive [inhibitor, single point]"}
{"smiles": "CCN1CC(O)=C(c2nc3ccccc3s2)C1=N", "activity change, negative = inhibition": "inactive: 44.6%"}
{"smiles": "Cc1ccc(C(C)NC(=O)c2ccc3c(c2)OCO3)cc1C", "note": "(centres undefined)", "activity change, negative = inhibition": "inactive: 3.82%"}
{"smiles": "CCN(CC)C(=O)c1sc2nc(Cc3ccccc3)[nH]c(=O)c2c1C", "Potency": "inconclusive [inhibitor, single point]"}
{"smiles": "O=C(NCCCC1CCCC1)C1CCC(=O)N(Cc2ccc(Cl)cc2)C1", "note": "(centres undefined)", "Potency": "inconclusive [inhibitor, single point]"}
{"smiles": "Cc1nn(CC(=O)N(C)C2CCS(=O)(=O)C2)c(C)c1S(=O)(=O)N(C)C", "note": "(centres undefined)", "Potency": "inconclusive [inhibitor, single point]"}
{"smiles": "COc1cc(/C=N/NC(=O)c2c(-c3ccccc3)noc2C)ccc1O", "activity change, negative = inhibition": "inactive: 4.93%"}
{"smiles": "CCn1cc(C(=O)NCCCN2CCCC(C)C2)c(=O)c2cc(S(=O)(=O)N3CCc4ccccc4C3)ccc21", "note": "(centres undefined)", "Potency": "inconclusive [inhibitor, partial curve, poor fit]"}
{"smiles": "O=C(NCCN1CCCCC1)c1cc(COc2c(F)cccc2F)on1", "Potency": "inconclusive [inhibitor, single point]"}
{"smiles": "O=c1oc2cc(Br)ccc2n1CSC1=NCCS1", "Potency": "inconclusive [inhibitor, single point]"}
{"smiles": "Cc1cccn2c(=O)c(C=O)c(Sc3ncccn3)nc12", "Potency": "inconclusive [inhibitor, single point]"}
{"smiles": "C=CCOn1c(=O)c(-c2ccc(Br)cc2)[n+]([O-])c2ccccc21", "Potency": "inconclusive [inhibitor, partial curve]"}
{"smiles": "Cc1cccn2c(CNCC3(c4ccccc4)CCCC3)c(C(=O)N3CCOCC3)nc12", "Potency": "inconclusive [inhibitor, partial curve, poor fit]"}
{"smiles": "CN(C)C(=O)c1cn(CCC#N)nc1-c1ccc2ccccc2c1", "Potency": "inconclusive [inhibitor, partial curve, poor fit]"}
{"smiles": "CCN1/C(=C/C=C/C=C/C=C/c2sc3ccccc3[n+]2CC)Sc2ccccc21", "Potency": "inconclusive [inhibitor, full curve]"}
{"smiles": "Cc1ccc(/C=N/NC(=O)c2ccccc2OCc2ccc(F)cc2)o1", "Potency": "inconclusive [inhibitor, single point]"}
{"smiles": "CC(=O)c1ccc(OCCCC(=O)Nc2ccc(S(=O)(=O)N3CCOCC3)cc2)cc1", "activity change, negative = inhibition": "inactive: -38.5%"}
{"smiles": "O=C1[C@H]2[C@@H](c3ccc(F)cc3)N3C(=O)N(c4cccc(Cl)c4)C(=O)[C@@]3(Cc3ccc(Cl)cc3)[C@H]2C(=O)N1C1CCCCC1", "Potency": "active: 4.65 µM"}
{"smiles": "COc1ccccc1CCNC(=O)C(=O)NCCC1CCCCN1S(=O)(=O)c1cccs1", "note": "(centres undefined)", "Potency": "inconclusive [inhibitor, single point]"}
{"smiles": "O=C(CNC(=O)c1ccc2c(c1)OCCO2)N/N=C/c1ccc(Cl)cc1", "activity change, negative = inhibition": "inactive: 5.48%"}
{"smiles": "C=CCNC(=S)N/N=C/c1ccc(-c2ccc(Br)cc2)o1", "Potency": "inconclusive [inhibitor, partial curve, poor fit]"}
{"smiles": "O=C(Cc1cccc(C(F)(F)F)c1)Nc1ccccc1", "Potency": "inconclusive [inhibitor, partial curve]"}
{"smiles": "CC(C)(C)NC(=O)c1ccc2c(c1)CCO2", "Potency": "inconclusive [inhibitor, partial curve, poor fit]"}
{"smiles": "CCc1ccccc1NC1c2ccccc2C(=O)N1c1cc(C)ccn1", "note": "(centres undefined)", "Potency": "active: 13.1 µM"}
{"smiles": "S=C(NCCc1ccccn1)Nc1ccc(Cl)c(Cl)c1", "activity change, negative = inhibition": "inactive: -5.58%"}
{"smiles": "O=C(c1ccccc1)c1c[nH]cc1-c1ccccc1", "activity change, negative = inhibition": "inactive: 10.7%"}
{"smiles": "O=C(N/N=C/c1cccnc1)c1[nH]ncc1Br", "activity change, negative = inhibition": "inactive: 18.8%"}
{"smiles": "O=C(CN(C(=O)Cn1nnc(-c2cccs2)n1)c1cnc2ccccc2c1)NCC1CCCO1", "note": "(centres undefined)", "Potency": "inconclusive [inhibitor, partial curve, poor fit]"}
{"smiles": "COc1cc(S(=O)(=O)N2CCC(O)(c3cccc(C(F)(F)F)c3)CC2)ccc1-n1cnnn1", "Potency": "active: 10.4 µM"}
{"smiles": "Cc1ccc(C)c(S(=O)(=O)N2CCN(C(=O)c3cc(-c4cccs4)nn3-c3ccccc3)CC2)c1", "Potency": "active: 7.38 µM"}
{"smiles": "O=C(Nc1nnc(SCc2ccc(F)cc2)s1)C1=COCCO1", "activity change, negative = inhibition": "inactive: 49.7%"}
{"smiles": "C=C(C)c1cccc(C(C)(C)NC(=O)NNC(=O)c2ccccc2O)c1", "activity change, negative = inhibition": "inactive: 0.938%"}
{"smiles": "COCCNC(=O)C1CCN(C(=O)c2cc3sccc3n2Cc2ccc(F)cc2)CC1", "Potency": "inconclusive [inhibitor, single point]"}
{"smiles": "CC(=O)N1c2ccc(S(=O)(=O)N(C)CC(=O)N(C)Cc3ccccc3)cc2CC1C", "note": "(centres undefined)", "activity change, negative = inhibition": "inactive: -3.71%"}
{"smiles": "O=[N+]([O-])c1cc(-c2ncccn2)cs1", "activity change, negative = inhibition": "inactive: -0.454%"}
{"smiles": "O=C(NCc1ccccn1)C(=O)NCC1OCCN1S(=O)(=O)c1ccc(F)cc1", "note": "(centres undefined)", "activity change, negative = inhibition": "inactive: 1.19%"}
{"smiles": "Cc1ccsc1C(=O)C1CCCN(CCO)C1", "note": "(centres undefined)", "Potency": "inconclusive [inhibitor, partial curve, poor fit]"}
{"smiles": "CCOC(=O)C1=NNC(C(=O)c2ccc(Cl)cc2)C1c1ccccc1", "note": "(centres undefined)", "activity change, negative = inhibition": "inactive: 2.91%"}
{"smiles": "CCN(CC)P(=O)(Nc1ccc([N+](=O)[O-])cc1)c1c(C)nn(CCC#N)c1NC(=O)c1ccc(Cl)cc1Cl", "note": "(centres undefined)", "Potency": "active: 7.38 µM"}
{"smiles": "CCOC(=O)C1CCCN(C(=O)c2cc(Nc3ccc(OC)c(OC)c3)nc3ccccc23)C1", "note": "(centres undefined)", "Potency": "inconclusive [inhibitor, partial curve]"}
{"smiles": "CC(C)(C)NCc1cc(Br)ccc1OC1CCCC1", "Potency": "inconclusive [inhibitor, single point]"}
{"smiles": "CC(C)c1ccc(-c2nnn(CC(=O)N3CCCCC3)n2)cc1", "activity change, negative = inhibition": "inactive: 4.09%"}
{"smiles": "CCOc1cc(/C=C2\\C(=O)N(Cc3ccc(C)cc3)C(C)=C2C(=O)OC)ccc1O", "Potency": "inconclusive [inhibitor, partial curve, poor fit]"}
{"smiles": "COc1ccc(Cn2ccnc2SCC(=O)Nc2ccccc2OC)cc1", "Potency": "inconclusive [inhibitor, partial curve, poor fit]"}
{"smiles": "O=C(Cn1cc(C(=O)c2ccco2)c2ccccc21)NC1CCCC1", "Potency": "inconclusive [inhibitor, partial curve, poor fit]"}
